# “And” between values parts separate entries of the source, which are not always exact repeats. Identical values can stand only once. Inconclusive results, whose numbers are uncertain, are shown with a selection of clear calls. For some assays here: Potencies of inconclusive entries are doubtful fits and often do not repeat. More than one record can exist for a structure, and the calls need not agree. The source made the active and inactive calls. Unless noted, the call rests on the fitted dose curve; in most records, active means well fitted curve in the direction sought with a large enough effect in the repeat runs; inconclusive means weak or mixed curves; inactive means no such curve, though single readings can be large; an effect the other way counts as inactive or inconclusive.
# Assays:
# [1] = qHTS assay for identifying genotoxic compounds that show differential cytotoxicity against isogenic chicken DT40 cell lines with known DNA damage response pathways - Rev3 mutant cell line (AID 743014); settings: chicken DT40 Rev3-/- viability, CellTiter-Glo, 40 h; activity, negative = cytotoxicity: at 68.4 µM (top of the series) unless noted; further: nearly all actives have a fitted effect of over 55% in size; further: potency means the concentration at half of the fitted maximal effect; on activity, negative = cytotoxicity: on the % scale 0 is the no-effect control and ±100 the full control effect
# [2] = qHTS assay for identifying genotoxic compounds that show differential cytotoxicity against isogenic chicken DT40 cell lines with known DNA damage response pathways - Rad54/Ku70 mutant cell line (AID 743015); settings: DT40 Rad54/Ku70 mutant viability, CellTiter-Glo, 40 h; activity change, negative = cytotoxicity: at 66.8 µM (top of the series); further: nearly all actives have a fitted effect of over 60% in size; further: potency means the concentration at half of the fitted maximal effect
# [3] = qHTS assay to identify small molecule antagonists of the androgen receptor (AR) signaling pathway using the MDA cell line - cell viability counter screen (AID 743041; further: potency means the concentration at half of the fitted maximal effect; nearly all actives have a fitted effect of over 45% in size); settings: MDA-kb2 viability, CellTiter-Fluor, 16 h, cells co-treated with R1881 androgen agonist; viability change, negative = cytotoxic: at 70.3 µM (top of the series) unless noted
# How it was run: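 MDA-kb2 AR-luc human breast carcinoma cells (MMTV-luciferase, AR/GR responsive) were treated with compounds plus R1881 agonist for 16 h at 37 °C. Viability was read as CellTiter-Fluor fluorescence in the same wells as the reporter assay.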
# [4] = system: thyroid hormone receptor (rat, GH3 cells); assay: qHTS assay to identify small molecule agonists of the thyroid receptor (TR) signaling pathway (AID 743066; calls by dose curve; further: potency means the concentration at half of the fitted maximal effect; on activation: on the % scale 0 is the no-effect control and ±100 the full control effect); settings: GH3.TRE-Luc cells, TR agonist luciferase, 24 h; activation: at 83.9 µM (top of the series) unless noted
# [5] = qHTS assay to identify small molecule antagonists of the estrogen receptor alpha (ER-alpha) signaling pathway - cell viability counter screen (AID 743074; calls by dose curve; further: nearly all actives have a fitted effect of over 45% in size; further: potency means the concentration at half of the fitted maximal effect); settings: ERalpha-bla HEK293 viability, CellTiter-Glo luminescence, 18 h; series mostly up to 69.4 µM
# [6] = qHTS assay to identify small molecule antagonists of the thyroid receptor (TR) signaling pathway - cell viability counter screen (AID 743064); settings: GH3.TRE-Luc viability, CellTiter-Fluor, 24 h; activity change, negative = cytotoxic: at 70.3 µM (top of the series) unless noted; further: nearly all actives have a fitted effect of over 50% in size; further: potency means the concentration at half of the fitted maximal effect
# How it was run: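 Fluorescence from CellTiter-Fluor, added after 23.5 h exposure at 37 °C, reported viability of GH3.TRE-Luc cells co-treated with compound and 1 nM T3. Measured in the same wells as the luciferase TR readout.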
# [7] = qHTS assay to identify small molecule antagonists of the thyroid receptor (TR) signaling pathway (AID 743065); settings: GH3.TRE-Luc, T3-stimulated luciferase inhibition, 23.5 h; series mostly up to 70.3 µM; further: potency means the concentration at half of the fitted maximal effect; nearly all actives have a fitted effect of over 55% in size
# How it was run: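 GH3.TRE-Luc rat pituitary cells carrying two TR response elements driving luciferase were plated for 4 h, given compound plus 1 nM T3 (final), and incubated 23.5 h at 37 C. ONE-Glo luminescence measured reporter inhibition; CellTiter-Fluor fluorescence tracked cytotoxicity.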
# [8] = molecular target: Estrogen receptor (Homo sapiens) (UniProt P03372); assay: qHTS assay to identify small molecule agonists of the estrogen receptor alpha (ER-alpha) signaling pathway using the BG1 cell line (AID 743079); settings: BG1Luc4E2 cells, ERE-luciferase agonist, 22 h; activation: at 70.3 µM (top of the series) unless noted; further: on the % scale 0 is the no-effect control and ±100 the full control effect; nearly all actives have a fitted effect of over 20% in size
# [9] = qHTS assay to identify small molecule antagonists of the estrogen receptor alpha (ER-alpha) signaling pathway using the BG1 cell line - cell viability counter screen (AID 743081); settings: BG1Luc4E2 viability, CellTiter-Fluor, 22 h; series mostly up to 70.3 µM;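 further: compound given together with 17beta-estradiol as the ER stimulus; on the % scale 0 is the no-effect control and ±100 the full control effect; nearly all actives have a fitted effect of over 45% in size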
# [10] = molecular target: Androgen receptor (Homo sapiens) (UniProt P10275); assay: qHTS assay to identify small molecule antagonists of the androgen receptor (AR) signaling pathway (AID 743035; active means well fitted inhibition curve with a large enough effect in the signal ratio in the repeat runs, not every such curve was filed as active; inconclusive means weak or mixed curves, or effect the other way; inactive means no such curve, though single readings can be large or run the other way; the % refers to the signal ratio; further: potency means the concentration at half of the fitted maximal effect; on activity change, negative = inhibition: on the % scale 0 is the no-effect control and ±100 the full control effect); settings: HEK293 AR-UAS-bla, R1881-stimulated, beta-lactamase FRET, 16 h
# How it was run: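 Using qHTS, AR-UAS-bla GripTite HEK293 cells received compound, then R1881, and were cultured 16 h at 37C/5% CO2 before a 2 h room-temperature LiveBLAzer B/G FRET substrate step and fluorescence measurement.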
# [11] = molecular target: Androgen receptor (Homo sapiens) (UniProt P10275); assay: qHTS assay to identify small molecule antagonists of the androgen receptor (AR) signaling pathway using the MDA cell line (AID 743042; further: on the % scale 0 is the no-effect control and ±100 the full control effect; nearly all actives have a fitted effect of over 55% in size); settings: MDA-kb2 AR-luc, MMTV luciferase, R1881 antagonist, 16 h; series mostly up to 70.3 µM
# How it was run: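 MDA-kb2 cells (human breast carcinoma, stably carrying an MMTV-luciferase reporter responsive to AR and GR) were plated at 3,000 cells/well and preincubated 5 hr at 37C, then given compound plus R1881 agonist for 16 h. ONE-Glo luminescence was read.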
# [12] = molecular target: Androgen receptor (Homo sapiens) (UniProt P10275); assay: qHTS assay to identify small molecule agonists of the androgen receptor (AR) signaling pathway (AID 743036; active means well fitted activation curve with a large enough effect in the signal ratio in the repeat runs, with a control signal flat, not every such curve was filed as active; inconclusive means weak or mixed curves, or effect the other way; inactive means no such curve, though single readings can be large or run the other way; the % refers to the signal ratio; further: on the % scale 0 is the no-effect control and ±100 the full control effect); settings: HEK293 AR-UAS-bla GripTite, beta-lactamase FRET ratio, 16 h; activation: at 62.4 µM (top of the series) unless noted
# How it was run: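 Fluorescence from a beta-lactamase FRET substrate served as read-out in AR-UAS-bla GripTite HEK293 cells. Cells were treated with DMSO-dissolved compounds for 16 h at 37C, then with LiveBLAzer B/G substrate for 2 h at room temperature.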
# [13] = qHTS assay to identify aromatase inhibitors - cell viability counter screen (AID 743084); settings: MCF-7 aro ERE viability, CellTiter-Fluor, 24 h; activity change, negative = cytotoxicity: at 70.3 µM (top of the series);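 further: cells stimulated with testosterone during compound exposure; nearly all actives have a fitted effect of over 55% in size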; further: potency means the concentration at half of the fitted maximal effect
# [14] = molecular target: Estrogen receptor (Homo sapiens) (UniProt P03372); assay: qHTS assay to identify small molecule antagonists of the estrogen receptor alpha (ER-alpha) signaling pathway (AID 743069; active means well fitted curve in the direction sought with a large enough effect in the signal ratio in the repeat runs, not every such curve was filed as active; inconclusive means weak or mixed curves, or effect the other way; inactive means no such curve, though single readings can be large or run the other way; the % refers to the signal ratio; further: potency means the concentration at half of the fitted maximal effect); settings: HEK293 ER-alpha-UAS-bla, beta-lactamase ratio, antagonist mode; activity, negative = inhibition: at 69.4 µM (top of the series) unless noted
# How it was run: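 HEK293 cells stably carrying an ER-alpha-UAS-bla beta-lactamase reporter were pre-cultured overnight in 2% charcoal-stripped FBS medium. Test compounds in DMSO were added together with 17beta-estradiol for 18 hr at 37C. Read-out was fluorescence after 2 hr with LiveBLAzer B/G FRET substrate at room temperature.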
# [15] = qHTS assay to identify small molecule antagonists of the estrogen receptor alpha (ER-alpha) signaling pathway using the BG1 cell line (AID 743080; calls by dose curve;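 further: BG1 cells stimulated with 17beta-estradiol alongside compound; nearly all actives have a fitted effect of over 25% in size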; further: potency means the concentration at half of the fitted maximal effect); settings: BG1Luc4E2 ERE-luciferase antagonist mode, luminescence; activity change, negative = inhibition: at 70.3 µM (top of the series) unless noted
# How it was run: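 BG1-Luc-4E2 cells (endogenous full-length ER-alpha, 4xERE luciferase) hormone-starved 5 days in charcoal-stripped FBS, plated 4,000/well for 24 h, then compound plus 17beta-estradiol for 21.5 h at 37 C; ONE-Glo luminescence read.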
# Aromatase (Homo sapiens) = Aromatase (Homo sapiens) (UniProt P11511); assay: qHTS assay to identify aromatase inhibitors (AID 743083); settings: MCF-7 aro ERE, testosterone-driven ERE luciferase, 24 h; series mostly up to 70.3 µM
# [16] = qHTS assay to identify small molecule antagonists of the androgen receptor (AR) signaling pathway - cell viability counter screen (AID 743033; further: potency means the concentration at half of the fitted maximal effect; nearly all actives have a fitted effect of over 45% in size); settings: AR-bla HEK293 viability, CellTiter-Glo luminescence, 16 h; activity change, negative = cytotoxicity: at 58.5 µM (top of the series)
# [17] = activity change, negative = inhibition: at 58.5 µM (top of the series) unless noted
# Tags describe the fitted curve by direction and shape or compound fluorescence and quenching.
# UniProt P03372, sequence (P03372 whole entry, looked up): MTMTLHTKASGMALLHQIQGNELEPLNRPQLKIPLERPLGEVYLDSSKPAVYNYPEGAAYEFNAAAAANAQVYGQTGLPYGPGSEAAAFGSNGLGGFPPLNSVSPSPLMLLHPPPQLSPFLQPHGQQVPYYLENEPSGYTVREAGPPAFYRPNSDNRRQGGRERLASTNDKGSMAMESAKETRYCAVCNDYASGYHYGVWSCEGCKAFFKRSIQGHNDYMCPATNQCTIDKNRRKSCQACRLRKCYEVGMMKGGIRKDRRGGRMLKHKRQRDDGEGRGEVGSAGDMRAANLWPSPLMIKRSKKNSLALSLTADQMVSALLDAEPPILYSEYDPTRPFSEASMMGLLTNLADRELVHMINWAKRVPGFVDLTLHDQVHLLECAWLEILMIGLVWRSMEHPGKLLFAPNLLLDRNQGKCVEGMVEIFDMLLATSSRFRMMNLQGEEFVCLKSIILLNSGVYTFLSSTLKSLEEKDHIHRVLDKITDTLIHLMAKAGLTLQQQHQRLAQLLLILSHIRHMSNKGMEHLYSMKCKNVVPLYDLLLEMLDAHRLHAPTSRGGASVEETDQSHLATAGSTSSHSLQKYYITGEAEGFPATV
# UniProt P10275, sequence (P10275 whole entry, looked up): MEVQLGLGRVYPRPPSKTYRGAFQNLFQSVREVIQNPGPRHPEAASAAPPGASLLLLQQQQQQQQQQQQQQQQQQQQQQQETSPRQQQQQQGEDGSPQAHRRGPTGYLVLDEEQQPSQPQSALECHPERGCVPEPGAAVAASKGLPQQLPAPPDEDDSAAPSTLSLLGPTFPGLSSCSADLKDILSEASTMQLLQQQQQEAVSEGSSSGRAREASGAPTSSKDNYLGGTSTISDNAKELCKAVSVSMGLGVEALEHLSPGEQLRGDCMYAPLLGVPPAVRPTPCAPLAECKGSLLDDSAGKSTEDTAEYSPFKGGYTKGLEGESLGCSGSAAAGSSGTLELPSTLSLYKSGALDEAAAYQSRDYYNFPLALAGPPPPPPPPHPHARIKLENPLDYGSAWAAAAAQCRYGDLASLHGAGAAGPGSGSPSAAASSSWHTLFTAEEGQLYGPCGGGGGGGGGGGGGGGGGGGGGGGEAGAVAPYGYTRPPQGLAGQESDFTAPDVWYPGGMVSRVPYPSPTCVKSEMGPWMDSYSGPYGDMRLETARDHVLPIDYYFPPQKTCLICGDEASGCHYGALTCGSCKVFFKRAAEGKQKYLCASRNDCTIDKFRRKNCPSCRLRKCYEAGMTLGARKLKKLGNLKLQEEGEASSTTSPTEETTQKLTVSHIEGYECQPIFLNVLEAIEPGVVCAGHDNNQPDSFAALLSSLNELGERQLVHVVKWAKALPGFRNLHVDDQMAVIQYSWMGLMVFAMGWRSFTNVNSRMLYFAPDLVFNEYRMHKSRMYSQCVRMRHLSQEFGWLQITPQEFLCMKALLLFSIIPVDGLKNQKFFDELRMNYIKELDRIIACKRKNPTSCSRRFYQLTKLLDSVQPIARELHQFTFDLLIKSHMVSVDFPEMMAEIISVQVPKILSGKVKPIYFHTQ
# UniProt P11511, sequence (P11511 whole entry, looked up): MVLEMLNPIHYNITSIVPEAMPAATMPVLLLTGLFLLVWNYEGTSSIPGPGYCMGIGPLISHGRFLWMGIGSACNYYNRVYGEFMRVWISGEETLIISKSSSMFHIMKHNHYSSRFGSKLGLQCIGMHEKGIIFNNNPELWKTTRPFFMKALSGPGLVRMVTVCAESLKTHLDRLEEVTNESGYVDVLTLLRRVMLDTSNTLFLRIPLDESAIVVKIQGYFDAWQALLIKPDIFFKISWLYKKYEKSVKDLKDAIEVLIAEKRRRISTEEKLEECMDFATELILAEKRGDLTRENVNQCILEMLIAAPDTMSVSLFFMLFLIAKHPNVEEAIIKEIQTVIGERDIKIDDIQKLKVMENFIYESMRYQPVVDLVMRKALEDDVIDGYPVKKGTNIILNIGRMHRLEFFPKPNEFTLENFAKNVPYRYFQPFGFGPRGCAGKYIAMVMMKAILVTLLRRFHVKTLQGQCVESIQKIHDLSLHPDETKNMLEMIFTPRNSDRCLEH
smiles,measurement,setting,value
CC12CC3CC(C)(C1)CC(N)(C3)C2,Potency,[1],active: 29.8 µM
same,Potency,[2],active: 29.8 µM
same,Potency,[3],"inconclusive: 31.2 µM [cytotoxic, single point]"
same,activation,[4],inconclusive: -8.19% [phenotype inactive]
same,Potency,[5],"inconclusive: 26.8 µM [cytotoxic, single point]"
Cc1ccc(N(CC2=NCCN2)c2cccc(O)c2)cc1,Potency,[1],"inconclusive: 33.5 µM [cytotoxic, single point]"
same,Potency,[2],"inconclusive: 33.5 µM [cytotoxic, single point]"
same,Potency,[6],"inconclusive: 33.5 µM [cytotoxic, single point]"
same,Potency,[7],"inconclusive: 33.5 µM [inhibitor, single point]"
same,Potency,[4],inactive
same,activation,[8],inconclusive: 7.08% [phenotype inactive]
same,Potency,[9],inactive
CS(=O)(=O)c1ccc([C@@H](O)[C@@H](CF)NC(=O)C(Cl)Cl)cc1,Potency,[1],active: 6.39 µM
CCC(CO)(CO)CO,Potency,[1],"inconclusive: 71.4 µM [cytotoxic, single point]"
same,Potency,[2],"inconclusive: 71.4 µM [cytotoxic, single point]"
same,Potency,[10]; [17],inactive
same,Potency,[11],inactive
COc1ccc(-c2cc(C(F)F)nn2-c2ccc(S(N)(=O)=O)cc2)cc1F,Potency,[1],inactive
CCc1cccc2c3c([nH]c12)C(CC)(CC(=O)O)OCC3 (centres undefined),Potency,[1],inactive
same,Potency,[2],"inconclusive: 60.9 µM [cytotoxic, partial curve, poor fit]"
same,Potency,[10]; [17],"inconclusive: 61.5 µM [falling, partial curve, poor fit]"
same,Potency,[12],inactive
C=C(CC(=O)O)C(=O)O,Potency,[1],"inconclusive: 78.4 µM [rising, partial curve, poor fit]"
same,Potency,[2],inactive
same,Potency,[6],inactive
same,Potency,[5],"inconclusive: 11.2 µM [cytotoxic, partial curve, poor fit]"
same,Potency,[13],inactive
COc1ccc(O)cc1,Potency,[1],"inconclusive: 66.1 µM [cytotoxic, single point] and inconclusive: 68.6 µM [cytotoxic, single point]"
same,Potency,[2],"inactive and inconclusive: 74.2 µM [cytotoxic, single point] and inconclusive: 68.6 µM [cytotoxic, single point]"
same,"activity change, negative = inhibition",[10]; [17],inconclusive: -30.1% and inconclusive: -17.6%
same,"activity change, negative = inhibition",[10]; at 58.5 µM (top of the series),inactive: 2.09%
same,Potency,[7],"inconclusive: 74.2 µM [inhibitor, single point]"
same,Potency,[5],"inconclusive: 43.6 µM [rising, partial curve, poor fit]"
CCCCC1(COC(=O)CCC(=O)O)C(=O)N(c2ccccc2)N(c2ccccc2)C1=O,Potency,[1],"inconclusive: 54.5 µM [cytotoxic, partial curve]"
same,Potency,[2],inactive
same,Potency,[10]; [17],inactive
same,Potency,[7],"inconclusive: 68.6 µM [inhibitor, single point]"
same,Potency,[14],"inconclusive: 0.867 µM [activator, full curve]"
same,"activity change, negative = inhibition",[15],inconclusive: 0.0115%
same,Potency,[9],inactive
C=C1CC[C@H](O)CC1=C/C=C1\CCC[C@]2(C)[C@@H]([C@H](C)/C=C/[C@H](C)C(C)C)CC[C@@H]12,Potency,[1],"inconclusive: 29.8 µM [cytotoxic, single point]"
same,Potency,[2],active: 13.3 µM and active: 13.6 µM and active: 27.3 µM
same,Potency,[3],"inconclusive: 42.9 µM [cytotoxic, partial curve, poor fit]"
same,Potency,[6],"inconclusive: 29.8 µM [cytotoxic, single point] and active: 60.6 µM and inconclusive: 68.6 µM [cytotoxic, single point]"
same,Potency,[4],"inconclusive: 21.5 µM [inhibitor, partial curve, poor fit]"
same,activation,[4],inconclusive: -6.92% [phenotype inactive]
same,Potency,[5],"inconclusive: 16.9 µM [cytotoxic, partial curve, poor fit] and active: 54.5 µM and active: 54.9 µM"
same,Potency,Aromatase (Homo sapiens),"inconclusive: 68 µM [inhibitor, single point]"
same,Potency,[13],"inconclusive: 68 µM [cytotoxic, single point] and inconclusive: 68.6 µM [cytotoxic, single point]"
COc1ccc(-c2cc(=S)ss2)cc1,Potency,[1],"inconclusive: 33.5 µM [cytotoxic, single point]"
same,Potency,[2],"inconclusive: 33.5 µM [cytotoxic, single point]"
same,Potency,[16],"inconclusive: 26.8 µM [cytotoxic, partial curve, poor fit]"
same,Potency,[7],"inconclusive: 29.8 µM [inhibitor, single point]"
same,Potency,[4],inactive
same,Potency,[14],"inconclusive: 21.3 µM [inhibitor, partial curve]"
same,Potency,[5],inactive
same,activation,[8],inconclusive: 0.617% [phenotype inactive]
same,Potency,[15],"inconclusive: 9.44 µM [rising, partial curve]"
same,Potency,[13],"inconclusive: 33.5 µM [cytotoxic, partial curve, poor fit]"
